Experimental data: PubChem BioAssay AID1346428 (National Center for Advancing Translational Sciences (NCATS), 2018)
In all, about 48,000 compounds went through this assay and about 1,200 (2.5%) were called active. Roughly 2% stayed inconclusive and do not appear here.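 How the source made its calls: active means activation of at least 60% and not above a set upper limit (about 1 call in 100 departs from these limits); inconclusive means activation of 40% to 60%, or above that upper limit; inactive means activation under 40%.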 This is one part of the list.

What follows are compounds tested against Probable G-protein coupled receptor 32 (Homo sapiens) (UniProt O75388) (assay: qHTS for Agonists of Human Resolvin D1 Receptor DRV1). Conditions: CHO-K1 GPR32 beta-arrestin PathHunter luminescence, 90 min; at 76.9 µM; active compounds read high; zero percent set by DMSO-only wells.
UniProt O75388, sequence (O75388 whole entry, looked up): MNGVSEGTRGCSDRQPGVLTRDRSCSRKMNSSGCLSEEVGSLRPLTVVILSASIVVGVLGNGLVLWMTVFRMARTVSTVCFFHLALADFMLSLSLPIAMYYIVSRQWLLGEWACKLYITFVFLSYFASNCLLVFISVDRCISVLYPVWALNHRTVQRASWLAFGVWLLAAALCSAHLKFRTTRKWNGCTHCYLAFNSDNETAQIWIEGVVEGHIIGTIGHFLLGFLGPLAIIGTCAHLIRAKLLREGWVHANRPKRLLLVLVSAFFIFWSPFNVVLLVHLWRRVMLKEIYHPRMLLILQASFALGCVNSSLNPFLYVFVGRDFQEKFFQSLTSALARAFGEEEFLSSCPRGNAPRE
Outline: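 Engineered CHO-K1 line co-expressing GPR32-ProLink and EA-beta-arrestin. Compound treatment lasted 90 min at 37 °C. Luminescence was recorded after 1 h with substrate at ambient temperature, relative to DMSO basal wells.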
Further: 0% is about no effect.

activation, active:
O=c1onc2cnc3ccccc3n12 67.6%, Cc1ccc(/C=C(\C#N)C(=O)Nc2cc(C)ccc2C)cc1 98.1%, O=C(CC1N=C2c3ccccc3N=C(SCc3ccc(Cl)cc3)N2C1=O)NCCc1ccccc1 (stereo not drawn) 73.8%

activation, inactive:
Cc1ccc(NC(=O)N2CCC(N3CCN(Cc4ccccc4)C(=O)C3=O)CC2)cc1Cl -8.27%, COc1cccc(NC(=O)c2sc3nc(N4CCOCC4)c4c(c3c2N)CC(C)(C)OC4)c1 -6.25%, Cc1cccc(NC(=O)NCCn2c(=O)oc3ccc(C)cc32)c1 -17.4%, COc1cc(NC(=O)C(CC(C)C)NS(=O)(=O)c2ccc3c(c2)CCCC(=O)N3)cc(OC)c1 (stereo not drawn) -5.23%, CCOC(=O)Cn1c(=O)n(CC2CCCO2)c2nc(-c3ccc(OC)cc3OC)nc(C(N)=O)c21 (stereo not drawn) -5.4%, Cc1ccc(CNC(=O)CCCn2c(=O)c3ccccc3n(CC(=O)C(C)(C)C)c2=O)cc1 7.35%, Cc1oc2c(c1C(=O)NCc1cccc(Br)c1)C1=NCCN1C=N2 -19.7%, CCOc1ccc(NC(=O)Cn2c(=O)n(-c3ccc(C)cc3)c(=O)c3cc(OC)c(OC)cc32)cc1 1.67%, COc1ccc(CNC(=O)c2cc3c(-c4ccccc4F)nn(C)c3s2)c(OC)c1 -18%, COc1ccccc1N1CCN(C(=O)C2CCN(S(=O)(=O)c3cnc[nH]3)CC2)CC1 7.86%, COc1ccc2oc(=O)c(-c3csc(/C(C#N)=C/c4ccc(F)cc4)n3)cc2c1 -19.9%, COc1ccc(CNC(=O)CN(c2ccc(C)cc2)S(=O)(=O)c2c(C)n[nH]c2C)cc1 -2.41%, COc1cc(C)c(Cl)cc1S(=O)(=O)NCCc1c(C)[nH]c2ccccc12 22.9%, Cc1ccc(C)c(CN2C(=O)c3ccccc3S(=O)c3ccc(C(=O)NCc4ccccc4Cl)cc32)c1 (stereo not drawn) -4.15%, COc1cccc(CNC(=O)CN2C(=O)N(c3cc(C)ccc3C)S(=O)(=O)c3ccccc32)c1OC -11.2%, CCOC(=O)c1c(NC(C)=O)c2c3c(sc2n1Cc1nc(-c2ccccc2OCC)oc1C)CCCC3 -31.4%, COc1cccc(NC(=O)Cn2cc(C(=O)C3CCCCC3)c3ccccc32)c1 -5.02%, Cc1ccc(C)c(N2CCN(C(=O)c3cnc4c(-c5ccccc5)c(C)nn4c3C)CC2)c1 -36.1%, CCN1CCC(N(Cc2cccc(OC)c2)C(=O)Nc2cccc(C(F)(F)F)c2)CC1 1.16%, CCN(CC)c1ccc(C(=O)NCc2ccc3c(c2)CCN3C(=O)c2ccccc2)cc1 -8.37%, CCOC(=O)c1c(NC(=O)c2cc(CC)on2)sc(C)c1C 7.48%, O=C(Nc1ccc(-c2cc(C(F)(F)F)nn2-c2ccccc2)cc1)c1cccc(F)c1 4.64%, Cc1ccc2c(c1)N(C(=O)CCC(=O)Nc1ccccc1Cl)CC(C)O2 (stereo not drawn) -13%, O=c1cc(CSc2ncn[nH]2)[nH]c2c(Cl)cccc12 -9.89%, Brc1ccccc1-n1ncc2c1ncn1nc(Cc3ccccc3)nc21 -20.8%, CCOC(=O)c1c(C)[nH]c(C)c1S(=O)(=O)NCC(=O)Nc1cccc(C(F)(F)F)c1 11.2%, O=C(CSc1nnc(NC(=O)NC2CCCCC2)s1)Nc1ccccc1F -4.03%, COc1ccc(OC)c(Nc2nc(-c3ccc(C)cc3)nc3ccccc23)c1 -18.9%, CC1CCCN(C(=O)Cn2c(=O)oc3cc(S(=O)(=O)N4CCCCC4)ccc32)C1 (stereo not drawn) -2.85%, CCOc1ccc(C2c3c(-c4ccc(C)cc4)n[nH]c3C(=O)N2c2ccc(Cl)cc2)cc1 (stereo not drawn) -2.07%, COc1ccccc1CNC(=O)CS(=O)(=O)c1cccc2nsnc12 28.3%, COc1cc(C(=O)NCC(c2ccc(N(C)C)cc2)N2CCc3ccccc32)cc(OC)c1OC (stereo not drawn) -29.6%, Cc1ccc(-c2nc3n(n2)C(c2ccccc2C)C=C(c2ccc(Cl)cc2)N3)cc1 (stereo not drawn) -3.9%, COc1ccc(-c2oc3ncn4nc(-c5cccc(C)c5)nc4c3c2-c2ccc(OC)cc2)cc1 -8.23%, Cc1ccc(CN2C(=O)c3ccccc3Sc3ccc(C(=O)NC4CCCCC4)cc32)cc1 -0.288%, COc1cc(C(=O)Nc2nnc(S(=O)(=O)N(C)c3ccccc3)s2)cc(OC)c1OC -12.4%, COc1ccc(OC)c(NC(=O)CCn2cnnn2)c1 5.28%, COc1ccc(CCNC(=O)c2cc(-c3ccc(C)cc3)nc3n[nH]c(-c4ccccc4)c23)cc1OC -7.91%, COc1ccc(CNC(=O)c2cc3c(=O)[nH]c4ccc(C)cc4c3s2)c(OC)c1 -7.25%, COC(=O)[C@@H]1CC2=CC(=O)CC[C@]2(C)[C@@]23O[C@@H]2C[C@@]2(C)[C@@H](CC[C@@]24CCC(=O)O4)[C@H]13 44.6%, O=C(NC1CC(=O)N(c2ccc(F)cc2)C1)c1cccs1 (stereo not drawn) -3.83%, Cc1ccn2c(Nc3ccc(F)cc3)c(-c3ccc(C)o3)nc2c1 -16.8%, COc1cc(CN(C(=O)COc2ccc(Br)cc2)c2ccccn2)cc(OC)c1OC -0.412%, CN1CCN(C(c2ccccc2)c2ccccc2)CC1 -7.31%, COc1ccc(CNC(=O)C2CCN(c3nc4ccccc4[nH]3)CC2)c(OC)c1 -16.3%, COc1cc2nc(SCc3ccc(Cl)cc3)n3nc(CCn4nc(C)cc4C)nc3c2cc1OC 6.68%, COC(=O)c1cccc(NC(=O)C2CCN(S(=O)(=O)Cc3ccccc3)CC2)c1C 1.54%, CCCCOc1ccc(OC(=O)c2sc3ncn(Cc4cccc(F)c4)c(=O)c3c2C)cc1 2.31%, Cc1nn(C(=O)c2ccc(Cl)cc2)c(C)c1Sc1ccc(Cl)cc1 45.9%, CC(=O)c1sc2c(c1C)c(=O)n(-c1ccc(Cl)cc1)c(=O)n2Cc1cc(=O)n2cc(Cl)ccc2n1 -11.4%, CCCSc1nc2sc3c(c2c(=O)n1-c1ccccc1)CCC(C)C3 (stereo not drawn) 10%, Cc1cc(NC(=O)CSc2nc(-c3ccccc3F)nc3c2c(=O)n(C)c(=O)n3C)no1 -4.53%, Cc1ccc2oc(=O)c3cc(C(=O)N4CCN(c5ccccc5)CC4)sc3c2c1 -18.7%, CCCCCn1c(=O)[nH]c2cc(C(=O)Nc3cc(OC)cc(OC)c3)ccc2c1=O 2.95%, Cc1cccc(CNC(=O)C2CCCN(S(=O)(=O)c3cn(C)cn3)C2)c1 (stereo not drawn) -9.66%, COc1ccccc1CNC(=O)CCn1c(=O)c2ccccc2n(CC(=O)Nc2ccc(C)cc2)c1=O -4.2%, Cn1nnnc1SCCCNCc1ccc(-c2ccc(Br)cc2)o1 -20.3%, Cc1ccccc1CCNC(=O)c1ccc2c(c1)c(C)c(C)n2C -24.3%, O=C(O)Cc1ccc(CCNS(=O)(=O)c2ccc(Cl)cc2)cc1 -2.38%, COC(=O)c1cc2oc3ccccc3c2n1Cc1cccc(C)c1 5.04%, CN(C)S(=O)(=O)c1ccc2c(c1)N(CC(=O)NCc1ccccc1)C(=O)C1CCCCN21 (stereo not drawn) -21.3%, CCC1CN(C(=O)NCc2ccc(C)cc2)c2cc(C)ccc2O1 (stereo not drawn) -32.5%, CCCCCNC(=O)c1c[nH]c2ccc(S(=O)(=O)N3CCC(C)CC3)cc2c1=O -19.2%, Cc1ccc(NC(=O)CSc2nc3ccccc3nc2Cc2ccccc2F)cc1F 3.62%, Cc1nn(S(=O)(=O)c2ccc(C(C)C)cc2)c(C)c1S(=O)(=O)N1CCCCCC1 -3.01%, COc1ccc(-c2nsc(NC(=O)COc3ccc(C)c(C)c3)n2)cc1 -6.88%, CCc1ccccc1NC(=O)C1(S(=O)(=O)c2ccc(Cl)cc2)CC1 -29.6%, Cc1ccc(C)c(N2CCN(C(=O)c3cc4ccc5cccnc5c4[nH]3)CC2)c1 -21.4%, CCOC(=O)c1c(C)oc2ncnc(Nc3ccc(F)cc3Cl)c12 -3.48%, Cc1ccc(OCC(=O)Nc2ccc(Cl)c(-c3nc4ncccc4o3)c2)cc1C 36%, Cc1cc(C)cc(NC(=O)CN2C(=O)CSc3ccc(S(=O)(=O)N(C)C)cc32)c1 -14.7%, O=C(COc1ccc(F)cc1)Nc1ccc(OCc2cc(=O)n3ccsc3n2)cc1 -2.57%, Cc1cccc(NC(=O)c2cccc(N3CCCS3(=O)=O)c2)c1 15.4%, COc1ccc(NS(=O)(=O)c2cc(-c3onc(C)c3C)ccc2C)c(OC)c1 -15.3%, CCC1CN(C(=O)N2CCC(C(=O)NCCCc3ccccc3)CC2)c2cc(C)ccc2O1 (stereo not drawn) -20.9%, Cc1ccccc1NC(=O)Cn1c(=O)n(CCC(=O)N2CCc3ccccc3C2)c(=O)c2ccccc21 9.34%, Cc1ccc(CNC(=O)CN2Cc3ccccc3C2=O)cc1 9.5%, COc1ccc(NC(=O)CCS(=O)(=O)c2cc3c(cc2C)NC(=O)CO3)cc1Cl -2.34%, Cc1ccc(Cl)cc1NC(=O)c1sc2nc(C)c(C)c(C)c2c1N 37.9%, CCOC(=O)c1ccccc1NC(=O)N(Cc1ccc(CC)cc1)Cc1cn[nH]c1-c1ccc(OC)cc1 -31.7%
